This is one part of the list.
Key:
Experiment in all cases: glycan array binding signal (z-score within array); higher = stronger binding
Conditions in all cases: glycan notation: IUPAC condensed, linker removed
[1] = molecular target: GlcNAc(b1-4)GlcNAc(b1-4)GlcNAc(b1-4)GlcNAc(b1-4)GlcNAc(b1-4)GlcNAc
How it was run: (§1)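 The binding signal is a Z-score computed within each array and averaged over linkers. Arrays of the same protein sequence at different concentrations or buffers were also averaged together. Data originate from 3228 arrays in the Consortium for Functional Glycomics database, kept only where the protein sequence was available.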

[2] = molecular target: GlcNAc(b1-4)[GlcNAc(b1-6)]GalNAc
How it was run: as §1

[3] = molecular target: GlcNAc(b1-6)Gal(b1-4)GlcNAc
How it was run: as §1

GlcNAc(b1-6)GalNAc = molecular target: GlcNAc(b1-6)GalNAc
How it was run: as §1

[4] = molecular target: GlcNAc6S(b1-3)Gal(b1-4)GlcNAc
How it was run: as §1

Kdn(a2-3)Gal(b1-3)GalNAc = molecular target: Kdn(a2-3)Gal(b1-3)GalNAc
How it was run: as §1

Kdn(a2-3)Gal(b1-3)GlcNAc = molecular target: Kdn(a2-3)Gal(b1-3)GlcNAc
How it was run: as §1

Kdn(a2-3)Gal(b1-4)Glc = molecular target: Kdn(a2-3)Gal(b1-4)Glc
How it was run: as §1

Kdn(a2-3)Gal(b1-4)GlcNAc = molecular target: Kdn(a2-3)Gal(b1-4)GlcNAc
How it was run: as §1

[5] = molecular target: Kdn(a2-3)Gal(b1-4)[Fuc(a1-3)]GlcNAc
How it was run: as §1

Kdn(a2-6)Gal(b1-4)GlcNAc = molecular target: Kdn(a2-6)Gal(b1-4)GlcNAc
How it was run: as §1

[6] = molecular target: Man(a1-2)Man(a1-2)Man(a1-3)Man
How it was run: as §1

[7] = molecular target: Man(a1-2)Man(a1-2)Man(a1-6)[Man(a1-3)]Man
How it was run: as §1

Man(a1-2)Man(a1-3)Man = molecular target: Man(a1-2)Man(a1-3)Man
How it was run: as §1

[8] = molecular target: Man(a1-2)Man(a1-3)[Man(a1-2)Man(a1-6)]Man
How it was run: as §1

[9] = molecular target: Man(a1-2)Man(a1-3)[Man(a1-2)Man(a1-6)]Man(a1-6)[Man(a1-2)Man(a1-2)Man(a1-3)]Man
How it was run: as §1

[10] = molecular target: Man(a1-2)Man(a1-3)[Man(a1-2)Man(a1-6)]Man(a1-6)[Man(a1-2)Man(a1-2)Man(a1-3)]Man(b1-4)GlcNAc(b1-4)GlcNAc
How it was run: as §1

[11] = molecular target: Man(a1-2)Man(a1-3)[Man(a1-6)]Man(a1-6)[Man(a1-2)Man(a1-3)]Man(b1-4)GlcNAc(b1-4)GlcNAc
How it was run: as §1

[12] = molecular target: Man(a1-2)Man(a1-6)[Man(a1-3)]Man(a1-6)[Man(a1-2)Man(a1-2)Man(a1-3)]Man
How it was run: as §1

[13] = molecular target: Man(a1-2)Man(a1-6)[Man(a1-3)]Man(a1-6)[Man(a1-2)Man(a1-2)Man(a1-3)]Man(b1-4)GlcNAc(b1-4)GlcNAc
How it was run: as §1

Man(a1-3)[Man(a1-6)]Man = molecular target: Man(a1-3)[Man(a1-6)]Man
How it was run: as §1

[14] = molecular target: Man(a1-3)[Man(a1-6)]Man(a1-6)[Man(a1-2)Man(a1-3)]Man(b1-4)GlcNAc(b1-4)GlcNAc
How it was run: as §1

[15] = molecular target: Man(a1-3)[Man(a1-6)]Man(a1-6)[Man(a1-3)]Man
How it was run: as §1

[16] = molecular target: Man(a1-3)[Man(a1-6)]Man(a1-6)[Man(a1-3)]Man(b1-4)GlcNAc(b1-4)GlcNAc
How it was run: as §1

[17] = molecular target: Man(a1-3)[Man(a1-6)]Man(b1-4)GlcNAc(b1-4)GlcNAc
How it was run: as §1

[18] = molecular target: Man(a1-3)[Man(a1-6)]Man(b1-4)GlcNAc(b1-4)[Fuc(a1-6)]GlcNAc
How it was run: as §1

Man(a1-6)Man = molecular target: Man(a1-6)Man
How it was run: as §1

Man(b1-4)GlcNAc = molecular target: Man(b1-4)GlcNAc
How it was run: as §1

MurNAc(b1-4)GlcNAc = molecular target: MurNAc(b1-4)GlcNAc
How it was run: as §1

Neu5Ac(a2-3)Gal = molecular target: Neu5Ac(a2-3)Gal
How it was run: as §1

[19] = molecular target: Neu5Ac(a2-3)Gal(b1-3)GalNAc
How it was run: as §1

[20] = molecular target: Neu5Ac(a2-3)Gal(b1-3)GalNAc(b1-3)Gal(a1-4)Gal(b1-4)Glc
How it was run: as §1

[21] = molecular target: Neu5Ac(a2-3)Gal(b1-3)GalNAc(b1-4)Gal(b1-4)Glc
How it was run: as §1

[22] = molecular target: Neu5Ac(a2-3)Gal(b1-3)GalNAc(b1-4)[Neu5Ac(a2-3)]Gal(b1-4)Glc
How it was run: as §1

[23] = molecular target: Neu5Ac(a2-3)Gal(b1-3)GalNAc(b1-4)[Neu5Ac(a2-8)Neu5Ac(a2-3)]Gal(b1-4)Glc
How it was run: as §1

[24] = molecular target: Neu5Ac(a2-3)Gal(b1-3)GalNAc6S
How it was run: as §1

[25] = molecular target: Neu5Ac(a2-3)Gal(b1-3)GlcNAc
How it was run: as §1

B1: Epa13 (Candida glabrata) (protein)
chain: MGSSHHHHHHSSGLVPRGSHMASDSSENGYAHGCSPSIRAKLKPGLSMEIYSYALRPTDDHCWDSAYLDPMFPRTGYLTHKLLGKAEGIIGPLNFLAKNPACIPAVSTLPLAFHFPKPFTITNFTMLLYGYLSPKKTGKYTFKLLADDLLLMNFGADNAFDCCSHDATKDNIGEYVAYSVWPGVNKNVTVYLESGIYYPLRLFFNNRDAIAQLDFAYYFNDSPIRQTDFSGMFFSIPDSVKCPANI
[1]
  glycan array binding signal (z-score): -0.051
[2]
  glycan array binding signal (z-score): -0.416
[3]
  glycan array binding signal (z-score): -0.342
GlcNAc(b1-6)GalNAc
  glycan array binding signal (z-score): -0.317
[4]
  glycan array binding signal (z-score): 0.032
Kdn(a2-3)Gal(b1-3)GalNAc
  glycan array binding signal (z-score): 0.239
Kdn(a2-3)Gal(b1-3)GlcNAc
  glycan array binding signal (z-score): -0.544
Kdn(a2-3)Gal(b1-4)Glc
  glycan array binding signal (z-score): -0.266
Kdn(a2-3)Gal(b1-4)GlcNAc
  glycan array binding signal (z-score): -0.455
[5]
  glycan array binding signal (z-score): 0.184
Kdn(a2-6)Gal(b1-4)GlcNAc
  glycan array binding signal (z-score): -0.44
[6]
  glycan array binding signal (z-score): -0.54
[7]
  glycan array binding signal (z-score): 0.029
Man(a1-2)Man(a1-3)Man
  glycan array binding signal (z-score): -0.531
[8]
  glycan array binding signal (z-score): -0.414
[9]
  glycan array binding signal (z-score): -0.397
[10]
  glycan array binding signal (z-score): -0.368
[11]
  glycan array binding signal (z-score): -0.409
[12]
  glycan array binding signal (z-score): -0.424
[13]
  glycan array binding signal (z-score): -0.149
Man(a1-3)[Man(a1-6)]Man
  glycan array binding signal (z-score): -0.564
[14]
  glycan array binding signal (z-score): 0.284
[15]
  glycan array binding signal (z-score): -0.473
[16]
  glycan array binding signal (z-score): -0.123
[17]
  glycan array binding signal (z-score): -0.305
[18]
  glycan array binding signal (z-score): 0.935
Man(a1-6)Man
  glycan array binding signal (z-score): 0.143
Man(b1-4)GlcNAc
  glycan array binding signal (z-score): -0.002
MurNAc(b1-4)GlcNAc
  glycan array binding signal (z-score): -0.227
Neu5Ac(a2-3)Gal
  glycan array binding signal (z-score): -0.372
[19]
  glycan array binding signal (z-score): -0.37
[20]
  glycan array binding signal (z-score): -0.324
[21]
  glycan array binding signal (z-score): -0.145
[22]
  glycan array binding signal (z-score): -0.116
[23]
  glycan array binding signal (z-score): -0.381
[24]
  glycan array binding signal (z-score): -0.476
[25]
  glycan array binding signal (z-score): -0.335

Source: the supplement of paper PMC8728848
